Source: ChEMBL document CHEMBL1201862, “PubChem BioAssay data set” (2004)

The compounds below were run on NCI-H322M (assay: NCI-60 cell line screen, 48 h).

For `O=C(NN1C(=O)C(Cl)C1c1cccc(O)c1)c1ccccc1O` (configuration not stated), which GI50 is on record?
Its GI50 is inactive: > 100 µM.

Which GI50 does the source give for `CC1(C)CC(Nc2ccc(Nc3ccccc3)cc2)CC(C)(C)N1` here?
The GI50 was inactive: 66.7 µM.

For `O=C(O)c1c2c(c(O)c3c1CN(C1CCCCC1)CO3)OCN(C1CCCCC1)C2`, which GI50 is on record?
Its GI50 is inactive: > 100 µM.

Which GI50 does the source give for `O=C(O)CSc1nnc(-c2ccccc2)[nH]1` here?
Its GI50 is inactive: > 100 µM.

`C/C(=N/O)c1sc(-c2nc(C)c(/C(C)=N\O)s2)nc1C` was tested. Which GI50 did it give?
The GI50 was inactive: > 100 µM.

`N#CCCSC1SC(=C2SC3=C(SCCS3)S2)SC1SCCC#N` (configuration not stated) was tested. Which GI50 did it give?
The GI50 was inactive: > 100 µM.

With `CCOC(=O)[C@@]1(C)C=C2O[C@@H]3OC4(CCCCC4)O[C@@H]3C2=C2C(O)=CC=C(O)[C@]21C(=O)OC` as the compound, how does the GI50 read?
Its GI50 is inactive: > 68.1 µM.

For `O=c1[nH]c2nc3ccccc3c(=O)n2/c1=C/c1cccs1`, which GI50 is on record?
Its GI50 is inactive: > 100 µM.

`CO[C@H]1O[C@@H]2CO[C@@H](c3ccccc3)O[C@H]2C[C@]12CCC/C=C\CO2` was tested. Which GI50 did it give?
Its GI50 is inactive: 73.1 µM.

How did the GI50 turn out when `C[C@]12CCC(=O)C=C1CC[C@@H]1C2CC[C@]2(C)c3nn(-c4ccccc4)nc3CC12` (some centres not stated) was run?
Its GI50 is inactive: > 100 µM.

Which GI50 does the source give for `COc1ccc2c(c1)C(N)CC2=O` (configuration not stated) here?
The GI50 was inactive: > 100 µM.

With `Cc1ccccc1OC(C)C(=O)NN1C(=O)CSC1c1ccc(Cl)cc1` (configuration not stated) as the compound, how does the GI50 read?
The GI50 was inactive: 20.7 µM.

`CCOP(=O)(CC1OC(CO)C(O)C1O)OCC` (configuration not stated) was tested. Which GI50 did it give?
The GI50 was inactive: > 100 µM.

With `C=C1C(=O)OC2C1C(OC(=O)/C(C)=C/C)CC1(C)C(=O)CCC(=C)C21` (configuration not stated) as the compound, how does the GI50 read?
Its GI50 is inactive: 20.4 µM.

For `COC(=O)C1=C(C(=O)OC)c2cc(OC)ccc2C(C(=S)N(C)C)S1` (configuration not stated), which GI50 is on record?
The GI50 was inactive: > 100 µM.

How did the GI50 turn out when `CSc1nnc(CCC(=O)Nc2c(C)cccc2C)o1` was run?
Its GI50 is inactive: > 100 µM.

How did the GI50 turn out when `CCC12C=CCN3CCC4(c5cc(C6(C(=O)OC)CCCCCc7c6[nH]c6ccccc76)c(OC)cc5N(C)C4C(O)(C(=O)OC)C1OC(C)=O)C32` (configuration not stated) was run?
The GI50 was inactive: 4.62 µM.

For `COc1cc2cc(C(=O)N3CC(CCl)c4ccc([N+](C)(C)Cc5ccc([N+](=O)[O-])cc5)cc43)[nH]c2c(OC)c1OC` (configuration not stated), which GI50 is on record?
Its GI50 is inactive: 4.88 µM.

Which GI50 does the source give for `COC(=O)Cc1c(-c2c(CC(=O)OC)c3ccccc3n2C2OC(COC3OC(COC(C)=O)C(OC(C)=O)C(OC(C)=O)C3OC(C)=O)C(O)C(O)C2O)[nH]c2ccccc12` (configuration not stated) here?
Its GI50 is inactive: > 100 µM.

`COc1ccccc1Cn1[nH]c(=O)c2cc([N+](=O)[O-])ccc21` was tested. Which GI50 did it give?
Its GI50 is inactive: > 100 µM.

For `CC1=C(C(=O)Nc2ccc([N+](=O)[O-])cc2)C(c2ccco2)C(C(=O)Nc2ccc([N+](=O)[O-])cc2)=C(C)N1`, which GI50 is on record?
The GI50 was inactive: 12.2 µM.

Which GI50 does the source give for `CCOc1ccccc1NC(=O)C(=O)CC(=O)C1=C(C)Nc2ccccc2S1` here?
The GI50 was inactive: > 100 µM.

How did the GI50 turn out when `COC(=O)[C@H]1CC(=O)C=C2CCCC21` (some centres not stated) was run?
The GI50 was inactive: > 100 µM.

For `O=C1C(Br)=C(Br)C(=O)c2ccc(=O)ccc21`, which GI50 is on record?
Its GI50 is inactive: > 100 µM.

`Cc1c(-c2ccccc2)c(C#N)c2nnn(-c3ccccc3)c(=O)n12` was tested. Which GI50 did it give?
The GI50 was inactive: > 100 µM.

`COc1ccc(C2SCC(=O)N2c2ccc(-c3ccc(-n4c(-c5ccccc5)nc5ccccc5c4=O)cc3)cc2)cc1` (configuration not stated) was tested. Which GI50 did it give?
Its GI50 is inactive: 44.5 µM.

`CCCCCCc1cc2cc(C(=O)Nc3cccc(C(F)(F)F)c3)c(=N)oc2cc1O` was tested. Which GI50 did it give?
The GI50 was inactive: 2.66 µM.

How did the GI50 turn out when `Nc1nc(-c2ccccc2)cc(-c2ccc(OCc3ccccc3)cc2O)n1` was run?
Its GI50 is inactive: 53 µM.

For `N#CSCc1cccc(Nc2cc(=O)[nH]c(=O)[nH]2)c1`, which GI50 is on record?
The GI50 was inactive: 49.3 µM.

With `COc1ccc(-c2cn3c(n2)sc2cc(C)ccc23)cc1` as the compound, how does the GI50 read?
The GI50 was inactive: 31.6 µM.

With `O=C1/C(=C/c2cc(O)c(O)c(O)c2)Oc2cc(O)cc(OC3OC(CO)C(O)C(O)C3O)c21` (configuration not stated) as the compound, how does the GI50 read?
The GI50 was inactive: 45.3 µM.

With `O=c1[nH]c(=O)c2c([nH]1)[nH]c1ccc(Br)cc12` as the compound, how does the GI50 read?
The GI50 was inactive: 54.7 µM.

For `N#CC1=C(N)N(/N=C/c2ccccc2)C(c2ccccc2)C1(C#N)C#N` (configuration not stated), which GI50 is on record?
The GI50 was inactive: 18.1 µM.

For `CCOC(=O)C1=C(C)N(NC(N)=O)C2(N)N(NC(N)=O)C(C)=C(C(=O)OCC)C12C(=O)OCC` (configuration not stated), which GI50 is on record?
Its GI50 is inactive: > 100 µM.

Which GI50 does the source give for `CCCCCC/C=C\CCCCCCCCC(=O)c1cccc(OC)c1OC` here?
The GI50 was inactive: > 100 µM.

`N#CC(O)CCOCc1ccccc1` (configuration not stated) was tested. Which GI50 did it give?
The GI50 was inactive: > 100 µM.

How did the GI50 turn out when `Cc1ccc(C(=O)O/N=C2/CCCCC2CN(C)C)cc1` (configuration not stated) was run?
Its GI50 is inactive: > 100 µM.

For `CN1CCN(Cn2nc(-c3ccccc3)n(/N=C/c3ccc(-c4ccc(Cl)cc4Cl)o3)c2=S)CC1`, which GI50 is on record?
Its GI50 is inactive: 13.1 µM.

For `O=C(Nc1nc(C23CC4CC(CC(C4)C2)C3)cs1)c1cc2cc([N+](=O)[O-])ccc2oc1=O`, which GI50 is on record?
Its GI50 is inactive: > 100 µM.

`CC1=NN(C(=O)c2ccncc2)C(=O)C1` was tested. Which GI50 did it give?
The GI50 was inactive: > 100 µM.

For `COc1ccc(C=O)c([N+](=O)[O-])c1`, which GI50 is on record?
The GI50 was inactive: 48.5 µM.

For `CC1(C)OC[C@@H](C[C@H](O)COCc2ccccc2)O1`, which GI50 is on record?
Its GI50 is inactive: > 100 µM.

With `CNC(N)NC` as the compound, how does the GI50 read?
Its GI50 is inactive: > 100 µM.

`CC1=N/C(=C\c2cccc3ccccc23)C(=O)O1` was tested. Which GI50 did it give?
Its GI50 is inactive: > 100 µM.

Which GI50 does the source give for `CCn1c(SCC(=O)NNC(=S)Nc2ccc(Cl)cc2)nc2ccccc2c1=O` here?
Its GI50 is inactive: 53.5 µM.

Which GI50 does the source give for `CC(C)COC(=O)N1N=NC2C3OC(CC3=O)C21` (configuration not stated) here?
The GI50 was inactive: > 100 µM.

`CCCCCCCCCCCCCCCCS(=O)(=O)c1ccc(NN)cc1` was tested. Which GI50 did it give?
The GI50 was inactive: > 10 µM.

`COc1ccc(/C=N/Nc2nc(-c3cc4oc(=O)n(C)c4cc3Cl)cs2)cc1OC` was tested. Which GI50 did it give?
Its GI50 is inactive: > 100 µM.

With `Cc1nn(C(=O)c2ccccc2O)c2c1C(c1ccc(O)cc1O)SC(=N)N2` (configuration not stated) as the compound, how does the GI50 read?
The GI50 was inactive: 5.93 µM.

For `COc1cc(C(=O)C(CO)Oc2ccccc2OC)ccc1O` (configuration not stated), which GI50 is on record?
The GI50 was inactive: > 100 µM.

With `O=C1OC(c2ccccc2)=NC1c1ccccc1` (configuration not stated) as the compound, how does the GI50 read?
Its GI50 is inactive: > 100 µM.

Which GI50 does the source give for `Clc1ccc(Cl)c(/N=N/c2cc3c4c(c2)CCCN4CCC3)c1` here?
Its GI50 is inactive: > 10 µM.

`NC1CC(=O)c2csc(Cl)c21` (configuration not stated) was tested. Which GI50 did it give?
Its GI50 is inactive: 18.1 µM.

`NCCCCNCCCNC(=O)CNC(=O)CC(O)C(N)CCCC(NC(=O)C(CN)NC(=O)C(O)CNC(=O)CC(N)c1ccc(O)cc1)C(=O)O` (configuration not stated) was tested. Which GI50 did it give?
Its GI50 is inactive: 4.2 µM.

How did the GI50 turn out when `O=C1c2cccc3cccc(c23)C(=O)N1CCN(CCO)CCO` was run?
Its GI50 is inactive: 26.9 µM.

`C=CCN(c1cc(OC)c2[nH]cc(C)c2c1[N+](=O)[O-])S(C)(=O)=O` was tested. Which GI50 did it give?
Its GI50 is inactive: > 100 µM.

Which GI50 does the source give for `COC(=O)/C(=N\NC(N)=S)C(C(=O)OC)C(=O)C(=O)Nc1ccc(C)cc1` (configuration not stated) here?
Its GI50 is inactive: > 100 µM.

How did the GI50 turn out when `CCC(=O)NC(Nc1ccccc1F)(C(F)(F)F)C(F)(F)F` was run?
The GI50 was inactive: > 100 µM.

With `CCOC(=O)c1[nH]c2nc(SC)nc(Nc3ccccc3Cl)c2c1N` as the compound, how does the GI50 read?
The GI50 was inactive: 19.5 µM.

How did the GI50 turn out when `CCOc1cc2c(cc1OC)c[n+](C)c1c3cc(OC)c(OC)cc3ccc21` was run?
Its GI50 is inactive: 46.2 µM.

How did the GI50 turn out when `O=c1[nH]nc(Cc2ccccc2)n1/N=C/c1cccs1` was run?
The GI50 was inactive: > 100 µM.

How did the GI50 turn out when `CC(=O)OCC1OC(n2c(=O)[nH]c(=O)c3sccc32)C(Br)C1OC(C)=O` (configuration not stated) was run?
Its GI50 is inactive: > 100 µM.

For `O=C1C[C@@H]2C(COC(=O)c3ccccc3)N(OCc3ccccc3)C[C@@H]2O1` (some centres not stated), which GI50 is on record?
Its GI50 is inactive: > 100 µM.

How did the GI50 turn out when `Cc1ccc(/C=C2\Sc3scc(-c4ccccc4)[n+]3C2=O)cc1` was run?
Its GI50 is inactive: 23.9 µM.

For `CC12O[C@]3([C@H](C(=O)N4CCOC43C)[C@H]1Cl)[C@H]1O[C@H]12` (some centres not stated), which GI50 is on record?
The GI50 was inactive: > 100 µM.

How did the GI50 turn out when `COc1cc2c(cc1OC)C(O)[C@H](Br)C(C)(C)O2` (some centres not stated) was run?
Its GI50 is inactive: > 100 µM.

How did the GI50 turn out when `C=C1CC(Cn2cc(Br)c(=O)[nH]c2=O)(c2ccc(-c3ccccc3)cc2)OC1=O` (configuration not stated) was run?
Its GI50 is inactive: 7.78 µM.

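Growth conditions: 96-well plates. Treatment: test compound, 48 hours, 5 concentrations. Analysis: linear interpolation between bracketing concentrations; unreached endpoints set to highest concentration. Here, GI50 denotes the concentration required for 50% inhibition of growth.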 Activity calls are given as the source filed them. Cut-off read from the data, not from the text of the source: active = GI50 up to about 1.1 µM and inactive = higher.
